From paper PMC5467913
No constants are given. Whether binding was seen depends on the method and setting. For some of these results: Binding seen in cells or lysates may run through a third protein. Some binding calls cover weakened binding; strength is not graded here. Sequences can lack the tags named with a protein. Each block holds one binder with its values, some of them ahead of it.

Columns and labels:
[1] = biological target: T1, GFP::SMA-3 (functional transgene in C. elegans) (C. elegans) (UniProt P45896); experiment: co-IP; sonicates of mixed-stage transgenic C. elegans, 5 mg total protein a sample; precipitated with anti-GFP antibody, Western blot with anti-DAF-16 antibody
T1 sequence: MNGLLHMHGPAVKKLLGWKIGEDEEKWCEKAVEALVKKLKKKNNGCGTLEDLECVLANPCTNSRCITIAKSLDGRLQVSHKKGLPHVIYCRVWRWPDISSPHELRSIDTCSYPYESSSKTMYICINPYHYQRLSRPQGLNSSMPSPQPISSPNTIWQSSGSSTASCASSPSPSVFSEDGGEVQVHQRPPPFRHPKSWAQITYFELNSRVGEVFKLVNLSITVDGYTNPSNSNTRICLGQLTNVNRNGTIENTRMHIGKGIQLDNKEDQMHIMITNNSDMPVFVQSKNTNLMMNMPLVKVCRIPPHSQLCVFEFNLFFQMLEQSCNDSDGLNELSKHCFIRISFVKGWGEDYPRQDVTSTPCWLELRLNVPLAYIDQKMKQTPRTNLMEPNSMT

[2] = biological target: T2, SMA-2::GFP (recombinant, in HEK293T cells) (C. elegans) (UniProt Q02330); experiment: co-IP; DAF-16::V5 co-expressed with SMA-2::GFP or GFP::SMA-3 in HEK293T cells
T2 sequence: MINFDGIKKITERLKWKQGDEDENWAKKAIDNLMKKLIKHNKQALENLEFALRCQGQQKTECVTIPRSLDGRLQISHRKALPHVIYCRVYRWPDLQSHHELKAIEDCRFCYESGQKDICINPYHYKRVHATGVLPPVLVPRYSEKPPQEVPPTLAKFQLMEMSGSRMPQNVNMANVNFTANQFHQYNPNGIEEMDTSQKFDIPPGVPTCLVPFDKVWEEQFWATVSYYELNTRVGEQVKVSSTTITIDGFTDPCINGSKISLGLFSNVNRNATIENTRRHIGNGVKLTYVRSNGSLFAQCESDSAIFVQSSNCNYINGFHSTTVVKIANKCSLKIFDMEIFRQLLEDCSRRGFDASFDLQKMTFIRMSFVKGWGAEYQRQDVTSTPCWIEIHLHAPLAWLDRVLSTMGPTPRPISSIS

[3] = biological target: T3, GFP::SMA-3 (recombinant, in HEK293T cells) (C. elegans) (UniProt P45896); experiment: as above
T3 sequence: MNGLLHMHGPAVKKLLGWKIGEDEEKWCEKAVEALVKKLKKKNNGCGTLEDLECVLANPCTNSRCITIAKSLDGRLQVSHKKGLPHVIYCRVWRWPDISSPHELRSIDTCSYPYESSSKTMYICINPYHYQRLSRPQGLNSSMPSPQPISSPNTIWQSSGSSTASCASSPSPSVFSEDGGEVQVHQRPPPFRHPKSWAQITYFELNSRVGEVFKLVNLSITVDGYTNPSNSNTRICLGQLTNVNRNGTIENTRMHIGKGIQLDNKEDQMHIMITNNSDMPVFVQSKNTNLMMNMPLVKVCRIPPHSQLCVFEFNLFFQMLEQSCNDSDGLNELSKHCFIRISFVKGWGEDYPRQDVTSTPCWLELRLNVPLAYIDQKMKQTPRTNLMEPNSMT

[4] = biological target: T4, DAF-16 (yeast two-hybrid fusion) (C. elegans) (UniProt O16850); experiment: two-hybrid; pGBKT7 and pGADT7 fusions in yeast strain AH109; selection on -Leu/-Trp/-His with 3 mM 3-AT and on -Leu/-Trp/-Ade
T4 sequence: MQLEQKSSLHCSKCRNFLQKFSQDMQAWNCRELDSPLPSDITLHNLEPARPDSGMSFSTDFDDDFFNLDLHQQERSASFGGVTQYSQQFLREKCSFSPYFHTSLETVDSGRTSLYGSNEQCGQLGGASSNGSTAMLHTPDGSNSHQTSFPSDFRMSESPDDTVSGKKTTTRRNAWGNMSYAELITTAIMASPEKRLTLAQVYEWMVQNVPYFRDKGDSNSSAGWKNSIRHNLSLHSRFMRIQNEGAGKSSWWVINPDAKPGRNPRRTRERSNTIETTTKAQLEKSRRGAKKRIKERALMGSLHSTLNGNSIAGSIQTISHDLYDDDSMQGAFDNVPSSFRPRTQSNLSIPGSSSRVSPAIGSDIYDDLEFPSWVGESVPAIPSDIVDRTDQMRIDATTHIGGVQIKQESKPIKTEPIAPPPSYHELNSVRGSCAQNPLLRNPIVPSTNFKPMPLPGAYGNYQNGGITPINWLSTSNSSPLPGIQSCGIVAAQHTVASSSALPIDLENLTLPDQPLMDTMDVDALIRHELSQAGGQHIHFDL

[5] = biological target: T5, SMA-3 (yeast two-hybrid fusion) (C. elegans) (UniProt P45896); experiment: as above
T5 sequence: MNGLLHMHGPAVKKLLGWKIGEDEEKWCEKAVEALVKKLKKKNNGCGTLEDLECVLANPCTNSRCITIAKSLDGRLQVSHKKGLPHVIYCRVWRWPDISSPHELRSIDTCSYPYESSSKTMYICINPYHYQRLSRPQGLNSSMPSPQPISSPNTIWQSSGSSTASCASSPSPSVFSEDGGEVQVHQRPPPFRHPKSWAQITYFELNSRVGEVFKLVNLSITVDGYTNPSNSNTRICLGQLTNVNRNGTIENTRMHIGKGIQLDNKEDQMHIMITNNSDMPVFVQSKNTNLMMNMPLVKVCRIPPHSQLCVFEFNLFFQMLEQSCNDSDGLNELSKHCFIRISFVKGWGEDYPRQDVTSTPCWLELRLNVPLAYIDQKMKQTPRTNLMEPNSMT

[6] = biological target: T6, FTT-2 (C. elegans 14-3-3 homologue; yeast two-hybrid fusion) (C. elegans) (UniProt Q20655); experiment: as above
T6 sequence: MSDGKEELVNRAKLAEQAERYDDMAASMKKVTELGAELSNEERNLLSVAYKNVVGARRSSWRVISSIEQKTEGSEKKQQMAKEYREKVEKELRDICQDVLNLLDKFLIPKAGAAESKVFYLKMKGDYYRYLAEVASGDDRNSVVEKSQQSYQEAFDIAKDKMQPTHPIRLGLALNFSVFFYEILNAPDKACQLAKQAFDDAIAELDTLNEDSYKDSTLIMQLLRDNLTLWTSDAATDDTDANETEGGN

B1: DAF-16 (C. elegans FOXO transcription factor), endogenous (protein, UniProt O16850 1-541)
chain: MQLEQKSSLHCSKCRNFLQKFSQDMQAWNCRELDSPLPSDITLHNLEPARPDSGMSFSTDFDDDFFNLDLHQQERSASFGGVTQYSQQFLREKCSFSPYFHTSLETVDSGRTSLYGSNEQCGQLGGASSNGSTAMLHTPDGSNSHQTSFPSDFRMSESPDDTVSGKKTTTRRNAWGNMSYAELITTAIMASPEKRLTLAQVYEWMVQNVPYFRDKGDSNSSAGWKNSIRHNLSLHSRFMRIQNEGAGKSSWWVINPDAKPGRNPRRTRERSNTIETTTKAQLEKSRRGAKKRIKERALMGSLHSTLNGNSIAGSIQTISHDLYDDDSMQGAFDNVPSSFRPRTQSNLSIPGSSSRVSPAIGSDIYDDLEFPSWVGESVPAIPSDIVDRTDQMRIDATTHIGGVQIKQESKPIKTEPIAPPPSYHELNSVRGSCAQNPLLRNPIVPSTNFKPMPLPGAYGNYQNGGITPINWLSTSNSSPLPGIQSCGIVAAQHTVASSSALPIDLENLTLPDQPLMDTMDVDALIRHELSQAGGQHIHFDL
- binding [1]: binds

B2: DAF-16::V5 (recombinant, in HEK293T cells) (protein, UniProt O16850 1-541)
chain: MQLEQKSSLHCSKCRNFLQKFSQDMQAWNCRELDSPLPSDITLHNLEPARPDSGMSFSTDFDDDFFNLDLHQQERSASFGGVTQYSQQFLREKCSFSPYFHTSLETVDSGRTSLYGSNEQCGQLGGASSNGSTAMLHTPDGSNSHQTSFPSDFRMSESPDDTVSGKKTTTRRNAWGNMSYAELITTAIMASPEKRLTLAQVYEWMVQNVPYFRDKGDSNSSAGWKNSIRHNLSLHSRFMRIQNEGAGKSSWWVINPDAKPGRNPRRTRERSNTIETTTKAQLEKSRRGAKKRIKERALMGSLHSTLNGNSIAGSIQTISHDLYDDDSMQGAFDNVPSSFRPRTQSNLSIPGSSSRVSPAIGSDIYDDLEFPSWVGESVPAIPSDIVDRTDQMRIDATTHIGGVQIKQESKPIKTEPIAPPPSYHELNSVRGSCAQNPLLRNPIVPSTNFKPMPLPGAYGNYQNGGITPINWLSTSNSSPLPGIQSCGIVAAQHTVASSSALPIDLENLTLPDQPLMDTMDVDALIRHELSQAGGQHIHFDL
- binding [2]: binds
- binding [3]: binds

B5: DAF-16 (yeast two-hybrid fusion) (protein, UniProt O16850 1-541)
chain: MQLEQKSSLHCSKCRNFLQKFSQDMQAWNCRELDSPLPSDITLHNLEPARPDSGMSFSTDFDDDFFNLDLHQQERSASFGGVTQYSQQFLREKCSFSPYFHTSLETVDSGRTSLYGSNEQCGQLGGASSNGSTAMLHTPDGSNSHQTSFPSDFRMSESPDDTVSGKKTTTRRNAWGNMSYAELITTAIMASPEKRLTLAQVYEWMVQNVPYFRDKGDSNSSAGWKNSIRHNLSLHSRFMRIQNEGAGKSSWWVINPDAKPGRNPRRTRERSNTIETTTKAQLEKSRRGAKKRIKERALMGSLHSTLNGNSIAGSIQTISHDLYDDDSMQGAFDNVPSSFRPRTQSNLSIPGSSSRVSPAIGSDIYDDLEFPSWVGESVPAIPSDIVDRTDQMRIDATTHIGGVQIKQESKPIKTEPIAPPPSYHELNSVRGSCAQNPLLRNPIVPSTNFKPMPLPGAYGNYQNGGITPINWLSTSNSSPLPGIQSCGIVAAQHTVASSSALPIDLENLTLPDQPLMDTMDVDALIRHELSQAGGQHIHFDL
- binding [6]: binds

Next, values leading:

- binding [4]: binds
- binding [5]: no binding
B3: SMA-2 (yeast two-hybrid fusion) (protein, UniProt Q02330 1-418)
chain: MINFDGIKKITERLKWKQGDEDENWAKKAIDNLMKKLIKHNKQALENLEFALRCQGQQKTECVTIPRSLDGRLQISHRKALPHVIYCRVYRWPDLQSHHELKAIEDCRFCYESGQKDICINPYHYKRVHATGVLPPVLVPRYSEKPPQEVPPTLAKFQLMEMSGSRMPQNVNMANVNFTANQFHQYNPNGIEEMDTSQKFDIPPGVPTCLVPFDKVWEEQFWATVSYYELNTRVGEQVKVSSTTITIDGFTDPCINGSKISLGLFSNVNRNATIENTRRHIGNGVKLTYVRSNGSLFAQCESDSAIFVQSSNCNYINGFHSTTVVKIANKCSLKIFDMEIFRQLLEDCSRRGFDASFDLQKMTFIRMSFVKGWGAEYQRQDVTSTPCWIEIHLHAPLAWLDRVLSTMGPTPRPISSIS

- binding [4]: binds
B4: SMA-3 (yeast two-hybrid fusion) (protein, UniProt P45896 1-393)
chain: MNGLLHMHGPAVKKLLGWKIGEDEEKWCEKAVEALVKKLKKKNNGCGTLEDLECVLANPCTNSRCITIAKSLDGRLQVSHKKGLPHVIYCRVWRWPDISSPHELRSIDTCSYPYESSSKTMYICINPYHYQRLSRPQGLNSSMPSPQPISSPNTIWQSSGSSTASCASSPSPSVFSEDGGEVQVHQRPPPFRHPKSWAQITYFELNSRVGEVFKLVNLSITVDGYTNPSNSNTRICLGQLTNVNRNGTIENTRMHIGKGIQLDNKEDQMHIMITNNSDMPVFVQSKNTNLMMNMPLVKVCRIPPHSQLCVFEFNLFFQMLEQSCNDSDGLNELSKHCFIRISFVKGWGEDYPRQDVTSTPCWLELRLNVPLAYIDQKMKQTPRTNLMEPNSMT
